The record followed here is PubChem BioAssay AID1508623 (National Center for Advancing Translational Sciences (NCATS), 2021).

In all, about 48,000 compounds went through this assay and about 450 (0.94%) were called active. Roughly 19% stayed inconclusive and do not appear here. The call rests on the fitted dose curve; in most records, active means well fitted inhibition curve with a large enough effect; inconclusive means small, poorly fitted or top-dose-only effect; inactive means no such curve, though single readings can be large or run the other way. This is one part of the list.

The nature of this assay: Primary qHTS for Identification of Small Molecule Inhibitors of Huntingtin Promoter Activity. Further: nearly all actives have a fitted effect of over 50% in size. Conditions: HEK293 HTT promoter firefly luciferase reporter (activity 0% = vehicle and -100% = no light), 24 h; series mostly up to 57.5 µM; activity change, negative = inhibition: at the top concentration. In short, it runs like this: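 Firefly luciferase signal from promoter-reporter HEK293 cells was scaled between vehicle (0%) and zero RLU (-100%). Compounds were tested at final concentrations of up to 57.5 uM over 24 h at 37 degrees C. PTC124 at 50 uM final served as control inhibitor.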
In the case of `O=c1c2cccnc2n(Cc2ccccc2F)c(=O)n1Cc1ccc(F)cc1`, the “activity change, negative = inhibition” value was inactive: -23.8%.
Consider `CCCCN1C(=O)c2[nH]nc(-c3ccccc3O)c2C1c1cc(Br)c(O)c(OC)c1` (stereo not given), for which the “activity change, negative = inhibition” value was inactive: -15.5%.
The same measure for `C[C@]12CCC(=O)C=C1CC[C@@H]1[C@@H]2[C@@H](O)C[C@@]2(C)[C@H]1CC[C@]2(O)C(=O)CO`: inactive: 4.03%; for `COc1ccc(NC(=O)Cn2c3ncccc3c(=O)n2-c2ccc(C)c(C)c2)c(OC)c1`: inactive: -1.97%.
The figure for `CCOCCCNC(=O)C(c1ccc(OC)cc1)N(Cc1ccc2c(c1)OCO2)C(=O)c1ccc(NC(C)=O)cc1` (stereo not given) is inactive: -15.4%; for `CCCCc1nn2c(=O)cc(COC(=O)c3ccc(NC(=O)c4ccccc4Cl)cc3)nc2s1` it is inactive: 17.4%.
The figure for `Cc1nnc(NC(=O)CSc2nc3c([nH]c4ccccc43)c(=O)n2-c2ccc(Cl)cc2)s1` is inactive: -21.2%.
Turning to `Cc1ccc2[nH]c(=O)c3cc(C(=O)N(C)c4ccc(Br)cc4)sc3c2c1`, the “activity change, negative = inhibition” value was inactive: -23%.
The same measure for `CC(=O)Nc1cc(C(=O)NCc2ccccc2Cl)ccc1Sc1ccc(F)cc1`: inactive: -17.8%; for `Cc1cc(C)cc(NC(=O)c2cc(S(=O)(=O)NCCC3=CCCCC3)ccc2F)c1`: inactive: -14.3%.
The figure for `Cc1ccc(NC(=O)c2cc(S(=O)(=O)N3CCCCC3)c[nH]2)cc1N(C)C` is inactive: 7.02%.
The same measure for `Cc1cccc(C(=O)Nc2ccc3oc(-c4cccc5c(Br)cccc45)nc3c2)c1`: inactive: -10.9%; for `CCOc1ccc2nc(N3CCN(C(=O)c4ccc5c(c4)CCCC5)CC3)sc2c1`: inactive: -26.6%.
On to `COc1ccc2c(c1)CC(C(=O)NCc1ccc(F)cc1)CO2` (stereo not given), for which the “activity change, negative = inhibition” value is inactive: -14.5%.
On to `Cc1cc(OCC(=O)Nc2ccc(C(=O)OC3CCCCC3)cc2)cc(C)c1Cl`, for which the “activity change, negative = inhibition” value is inactive: -12.2%.
The figure for `COc1ccc(CCNCc2c(C(=O)O)c(C)n(Cc3c(F)cccc3Cl)c2C)cc1OC` is inactive: -11.5%; for `Cc1ccc2c(c1)C(=O)OC(C(=O)Nc1ncc(Cc3ccccc3Cl)s1)C2` (stereo not given) it is inactive: -6.9%.
The figure for `Cc1ccc(-c2cc(-c3ccc4c(c3)NC(=O)CO4)nc3c2COc2ccccc2-3)cc1` is inactive: -3.41%; for `COc1ccc2c(c1)c1c(c(=O)n(-c3ccc(F)c(Cl)c3)c(=O)n1Cc1cccc(C)c1)n2C` it is inactive: 5.55%.
The same measure for `CCOc1ccc2c(c1)c(=O)c(C(=O)c1ccccc1)cn2Cc1ccccc1`: inactive: -23.3%; for `Cc1ccc(C(=O)Nc2c(C(=O)NC(C)(C)C)oc3ccccc23)cc1`: inactive: -13.8%.
`CCOC(=O)c1ccc(NC(=O)CSc2c(C(C)C)cnc3c2c(=O)n(C)c(=O)n3C)cc1`: the “activity change, negative = inhibition” value was inactive: -9.02%.
Regarding `Cc1cc(C)c2c(CC(=O)Nc3ccc(F)cc3)coc2c1`, the “activity change, negative = inhibition” value is inactive: -28%.
For `Cc1ccc(-n2nc(C)c3nc(CCC(=O)Nc4cccc(C)c4C)c(=O)n(C)c32)cc1`, the “activity change, negative = inhibition” value is inactive: -13.4%.
The same measure for `COc1ccc(CNC(=O)Cn2nc3c(cc2=O)CCCC3)cc1`: inactive: 2.36%.
On to `Cc1cccc(N2C(=O)N(Cc3cc(=O)n4ccccc4n3)c3ccccc3S2(=O)=O)c1`, for which the “activity change, negative = inhibition” value is inactive: -15.3%.
The same measure for `COC(=O)c1nc2n(n1)C(c1cccc(Cl)c1)C(C(=O)Nc1ccccc1OC)=C(C)N2` (stereo not given): inactive: -9.43%.
The figure for `Cc1c2cnn(-c3ccccc3)c(=O)c2c(C)n1CCCC(=O)Nc1cc(F)ccc1F` is inactive: -8.33%; for `Cc1cccc(C)c1NC(=O)C(NS(=O)(=O)c1ccc2c(c1)CCC(=O)N2)c1ccccc1` (stereo not given) it is inactive: -9.77%; for `O=C(CSc1nc2ccccc2nc1Cc1ccc(Cl)cc1)N1CCc2ccccc21` it is inactive: 2.45%.
The same measure for `Cc1ccc(-c2nc(C)c(CCNC(=O)c3ccco3)s2)cc1`: inactive: 9.7%.
Regarding `CCc1ccc(CNC(=O)CN2C(=O)c3cccnc3Oc3ccc(Cl)cc32)cc1`, the “activity change, negative = inhibition” value is inactive: -6.81%.
Take `CCN(c1cccc(C)c1)S(=O)(=O)c1nnc(NC(=O)C2CCCCC2)s1`: the “activity change, negative = inhibition” value was inactive: -5.27%.
Consider `COc1ccc(-c2nc3sc(CCNC(=O)c4cc(OC)c(OC)c(OC)c4)c(C)n3n2)cc1`, for which the “activity change, negative = inhibition” value is inactive: 12.3%.
The figure for `CCOc1ccc(NC(=O)CSc2ncc3c(n2)-c2ccc(Cl)cc2N(Cc2ccccc2)S3(=O)=O)cc1` is inactive: -11.6%; for `COc1ccc(C)cc1NC(=O)c1oc2ccc(S(=O)(=O)N3CCCCC3)cc2c1C` it is inactive: -7.89%.
The same measure for `Cc1ccc(C)c(N2CCN(S(=O)(=O)c3cc(Br)cc4c3N(C(=O)C3CC3)CC4)CC2)c1`: inactive: -4.31%; for `CCOc1ccc(C2c3[nH]c4ccccc4c3CCN2C(=O)CCc2ccccc2)cc1` (stereo not given): inactive: -18.5%.
As for `Clc1ccc2c(c1)Nc1ccccc1S2`, the “activity change, negative = inhibition” value was inactive: 0.553%.
The same measure for `O=C(C1CCN(S(=O)(=O)c2ccc(Br)s2)CC1)N1CCN(c2cccc(Cl)c2)CC1`: inactive: -24.9%; for `COc1cc(C(=O)NCCCc2nc3ccccc3n2CC(C)C)cc(OC)c1OC`: inactive: -2.3%.
The same measure for `Cc1ccc(Sc2c(C)nn(C(=O)COc3ccccc3Br)c2C)cc1`: inactive: -21.1%.
The same measure for `CCOc1ccc(CCNC(=O)c2sc3nc4n(c(=O)c3c2C)CCCC4)cc1OCC`: inactive: -10.1%; for `CCOC(=O)c1ccc(NC(=O)CCn2c(=O)c3cccn3c3ccccc32)cc1`: inactive: 0.499%.
With `Cc1ccc2[nH]c(CSc3nnc(NC(=O)COc4ccccc4)s3)cc(=O)c2c1`, the “activity change, negative = inhibition” value was inactive: -11.9%.
The figure for `NC(=O)c1c(NC(=O)c2nc(SCc3ccccc3F)ncc2Cl)sc2c1CCCC2` is inactive: -5.54%; for `CCOC(=O)c1sc2ncn(CC(=O)Nc3ccc(N(C)C)cc3)c(=O)c2c1C` it is inactive: -8.81%; for `O=C(Nc1nc2ccc(S(=O)(=O)N3CCCC3)cc2s1)c1cccc(F)c1` it is inactive: -9.28%.
As to `COc1ccc(OC)c(CNC(=O)c2nn(-c3ccc(OC)c(Cl)c3)c(=O)c3c2c2ccccc2n3C)c1`, the “activity change, negative = inhibition” value is inactive: 0.811%.
The same measure for `CCCCn1cc(S(=O)(=O)c2ccc(C)c(C)c2)c(=O)c2cc(F)c(N3CCCC(C)C3)cc21` (stereo not given): inactive: 2.24%; for `CCOc1ccc2nc(N3CCCC(C(=O)Nc4c(C)cccc4C)C3)sc2c1` (stereo not given): inactive: 53.9%; for `COc1ccc(CCNC(=O)CCCn2c(=O)c3ccccc3n(Cc3cccc(Cl)c3)c2=O)cc1OC`: inactive: -30.3%.
The figure for `Nc1nc2ccccc2n1Cc1ccc(F)cc1` is inactive: -15.7%; for `COc1ccc(S(=O)(=O)n2nc(C)c(S(=O)(=O)N3CCC(C)CC3)c2C)cc1C` it is inactive: 4.47%.
For the molecule `CCC(=O)Nc1c(C(=O)N2CCN(c3ccc(F)cc3)CC2)oc2ccccc12`, the “activity change, negative = inhibition” value was inactive: -33.6%.
The figure for `Cc1cccc(C)c1NC(=O)CSc1nc(-c2ccccc2)nc2c1Cc1c(CO)cnc(C)c1O2` is inactive: -14.9%; for `O=C1NCCN(Cc2ccc(F)cc2)C1=O` it is inactive: -9.56%; for `COc1ccc(NC(=O)Cn2nnc(C(=O)Nc3ccc(F)c(Cl)c3)c2N)cc1OC` it is inactive: -7.14%.
With `Cc1ccc(NC(=O)Cn2cc(C(=O)C3CC3)c3ccccc32)cc1`, the “activity change, negative = inhibition” value is inactive: -4.11%.
For `COC(=O)c1scc(-c2ccc(C)cc2)c1S(=O)(=O)Nc1cc(Cl)ccc1C`, the “activity change, negative = inhibition” value is inactive: -31.3%.
